First the molecules themselves.
B1: OR4K15 (parent)
chain: GUUAACGGUCAUAGGCCAUGGAAACUAGGAGCACCAUUUCGCUGCCAGUGAAGAAAUGAACAAAGAAAAUCUGGGCCAGGCAGGCAUCAAAAGAAAUAGUCUUGCGCUCAACCAGAAAGUCUGUAAUCAUUUUAAGGGUA

Read counts are not given, so values of variants with three or more changes are uncertain.

In this data set the parent is B1. The data set can be described thus: self-cleavage, relative activity (ratio to wild type); higher = more cleavage; in vitro, sequencing; the parent is a self-cleaving ribozyme.
In the case of GUUAACGGUCAUAGGCCAUGGAAACUAGGAGCACCAUUUCGCUGCCAGUGAAGAAAUGAACAAAGAGAAUCUGGGCCAGGCAGGCGUCAAAAGAAAUAGUCGUGCGCUCAACCAGAAAGUCUGUAAUCAUUUUAAGGGUA [A67G A86G U102G], the self-cleavage turned out to be 0.27.
Take GUUAACGGUCAUAGGCCAUGGAAACUAGGAGCACCAUUUCGCUGCCAGUGAAGAAAUGAACAAAGUAAAUCCGGACCAGGCAGGCAUCUAAAGAAAUAGUCUUGCGCUCAACCAGAAAGUCUGUAAUCAUUUUAAGGGUA [A66U U72C G75A A89U]: the self-cleavage was 0.21.
To GUUAACGGUCAUAGGCCAUGGAAACUAGGAGCACCAUUUCGCUGCCAGUGAAGAAAUGAACAAAGAGAAUCUGGGCCAGGCGGGCAUCAAAAGAAACAGUCUUGGGCUCAACCAGAAAGUCUGUAAUCAUUUUAAGGGUA [A67G A82G U97C C105G] belongs 0.02; to GUUAACGGUCAUAGGCCAUGGAAACUAGGAGCACCAUUUCGCUGCCAGUGAAGAAAUGAACAAAGUAGAUCUGGGCCAGGCAGGCAUCAAAAGAAAUAGUCCUGCGCUCAACCAGAAAGUCUGUAAUCAUUUUAAGGGUA [A66U A68G U102C], 1.97; to GUUAACGGUCAUAGGCCAUGGAAACUAGGAGCACCAUUUCGCUGCCAGUGAAGAAAUGAACAAAGAGAAUCUGGGCCAGGCAGGCGUCAAGAGAAAUAGUCAUGCGCUCAACCAGAAAGCCUGUAAACAUUUUAAGGGUA [A67G A86G A91G U102A U120C U127A], 0.43.
For GUUAACGGUCAUAGGCCAUGGAAACUAGGAGCACCAUUUCGCUGCCAGUGAAGAAAUGAACAAAGAGAAUCUGGGCCAGGCAGGCAUCAGAAGAAAUAGUCUUGCGCUCAACCAGAGAGUCUGUAAUCAUUUUAAGGGUA [A67G A90G A117G] the value was 1.54.
For GUUAACGGUCAUAGGCCAUGGAAACUAGGAGCACCAUUUCGCUGCCAGUGAAGAAAUGAACAAAGGAAAUCUGGGCCAGGCAGGCAUCAAAAGAAAUAGUCUUGCGCUCAACCAGAAAGUCUGCAAUCACUUUAAGGGUA [A66G U124C U130C] the value was 0.67.
For the variant GUUAACGGUCAUAGGCCAUGGAAACUAGGAGCACCAUUUCGCUGCCAGUGAAGAAAUGAACAAAGGAAAUCUGGGCCAGGCAGGCAUCAAAAGAAAUAGUCCUGCGCUCAACCAGAAAGUCUGUAAUCAUUUUAGGGGUA [A66G U102C A135G], the self-cleavage came to 2.13.
For GUUAACGGUCAUAGGCCAUGGAAACUAGGAGCACCAUUUCGCUGCCAGUGAAGAAAUGAACAAAGGAAAUCUGGGCCAGGCAGGCAUCAAAAGAAAUAGUCUCGCGCCCAACCAGAAAGUCUGUAAUCAUUUUAAGGGUA [A66G U103C U108C] the value was 0.01; for GUUAACGGUCAUAGGCCAUGGAAACUAGGAGCACCAUUUCGCUGCCAGUGAAGAAAUGAACAAAGGAAAUCUGGGCCAGGCAGGCAUCAAAAGAAAUAGUCUUGCGCUCAACCAGAAAGUCUGCAGUCAUUUUGAGGGUA [A66G U124C A126G A134G], 0.87.
To GUUAACGGUCAUAGGCCAUGGAAACUAGGAGCACCAUUUCGCUGCCAGUGAAGAAAUGAACAAAGGAAAUCCGGGCCAGGCAGGCACCAAAAGAAAUAGUCUUGCGCUCAACCAGAAAGUCUGUAAUCAUUUUAAGGGUA [A66G U72C U87C] belongs 0.26.
To GUUAACGGUCAUAGGCCAUGGAAACUAGGAGCACCAUUUCGCUGCCAGUGAAGAAAUGAACAAAGUAAAUCUGGGCCAGGCAGGCAUCAAAAGAAAUAGUCUUGCGCUCAACCAGAGAGUCUGUAAUCAUUUUAAGGGUG [A66U A117G A140G] belongs 0.53.
Regarding GUUAACGGUCAUAGGCCAUGGAAACUAGGAGCACCAUUUCGCUGCCAGUGAAGAAAUGAACAAAGAGAAUCUGGGCCAGGCAGGCAUCGAAAGAAAUAGUCUCGCGCUCAACCAGAAAGUCUGUAAUCAUUUUAAGGGUA [A67G A89G U103C], the self-cleavage is 0.82.
To GUUAACGGUCAUAGGCCAUGGAAACUAGGAGCACCAUUUCGCUGCCAGUGAAGAAAUGAACAAAGGAAAUCUGGGCCAGGCAGGCAUCAAAAGAAAAAGUCUUGCGCUCAACCAGAGAGGCUGUAAUCAUUUUAAGGGUA [A66G U97A A117G U120G] belongs 1.5; to GUUAACGGUCAUAGGCCAUGGAAACUAGGAGCACCAUUUCGCUGCCAGUGAAGAAAUGAACAAAGAGGAUCUGGGCCAGGCAGGCAUCAAAAGAAAUAGUCUUGCGCUCAACCAGAAAGUCUGUAAUCAUCUUAAGGGUA [A67G A68G U131C], 1.11; to GUUAACGGUCAUAGGCCAUGGAAACUAGGAGCACCAUUUCGCUGCCAGUGAAGAAAUGAACAAAGAGAAUCUGGGCCAGGCAGGCUUCAAAAGAAAUAGCCAUGCGCUCAACCAGAAAGUCUGUAAUCAUUUUAAGGGUA [A67G A86U U100C U102A], 2.06.
With GUUAACGGUCAUAGGCCAUGGAAACUAGGAGCACCAUUUCGCUGCCAGUGAAGAAAUGAACAAAGAGGACCUGGGCCAGGCAGGCAUCAAAAGAAAUAGUCUUGCGCUCAACCAGAAAGUCUGUAAUCAUUUUAAGGGUA [A67G A68G U70C], the self-cleavage is 0.86.
For GUUAACGGUCAUAGGCCAUGGAAACUAGGAGCACCAUUUCGCUGCCAGUGAAGAAAUGAACAAAGAGAAUCUGGGCCAGGCAGGCAUCAAGAGAAAUAGUCUUGCGCUCAACCAGAAAGUCUGUAAUCAUUUUAGGGGUA [A67G A91G A135G] the value was 1.42.
To GUUAACGGUCAUAGGCCAUGGAAACUAGGAGCACCAUUUCGCUGCCAGUGAAGAAAUGAACAAAGAGAAUCUGGGCCAGGCAGGCAUCAUAAGAAAUAGCCUUGCGCUCAACCAGAAAGUCUGUAAUCAUUUUAAGGGUA [A67G A90U U100C] belongs 2.86; to GUUAACGGUCAUAGGCCAUGGAAACUAGGAGCACCAUUUCGCUGCCAGUGAAGAAAUGAACAAAGGAAAUCUGGGCCAGGCAGGCAUCAAAAGAAAUAGUCUUGCGCUCAACCAGAAAGCCUGCAAUCAUUUUAAGGGUA [A66G U120C U124C], 0.51; to GUUAACGGUCAUAGGCCAUGGAAACUAGGAGCACCAUUUCGCUGCCAGUGAAGAAAUGAACAAAGUAAAUCUGGGCCAGGCCGGCACCAAAAGAAAUAGUCUUGCGCUCAACCAGGAAGUCUGUAAUCAUUUUAAGGGUA [A66U A82C U87C A116G], 0.1.
To GUUAACGGUCAUAGGCCAUGGAAACUAGGAGCACCAUUUCGCUGCCAGUGAAGAAAUGAACAAAGAGAAUCUGGGCCAGGCGGGCAUCAAAAGAAAUAGUCUUGCGCUCAACCAGAAAGUCUGUAAUCAUUUUAAGGGCA [A67G A82G U139C] belongs 0.5; to GUUAACGGUCAUAGGCCAUGGAAACUAGGAGCACCAUUUCGCUGCCAGUGAAGAAAUGAACAAAGAGAAUCUGGGCCAGGCCGGCAUCAAAAGAAAUAGUCUUGCGCUCAACCAGAAAGUCUGUAGUCAUUUUAAGGGUA [A67G A82C A126G], 0.1.
With GUUAACGGUCAUAGGCCAUGGAAACUAGGAGCACCAUUUCGCUGCCAGUGAAGAAAUGAACAAAGAGAAUCUGGGCCAGGCUGGCAUCAAAAGAAAUAGUCUUGCGCUCAACCAGAAAGUCUGUAUUCAUUUUAAGGGUA [A67G A82U A126U], the self-cleavage was determined as 0.03.
Regarding GUUAACGGUCAUAGGCCAUGGAAACUAGGAGCACCAUUUCGCUGCCAGUGAAGAAAUGAACAAAGAGAAUCUGGGCCAGGCAGGCGCCAAAAGAAAUAGUCUUGCGCUCAACCAGAAAGUCUGUAAUCAUUUUAAGGGUA [A67G A86G U87C], the self-cleavage turned out to be 0.86.
For GUUAACGGUCAUAGGCCAUGGAAACUAGGAGCACCAUUUCGCUGCCAGUGAAGAAAUGAACAAAGAGAAUCUGGGCCAGGCAGGCGUCAAAAGAAAUAGUCUUGCGCUCAACCUGAAAGUCUGUAAUCAUUUUAAGGGUA [A67G A86G A114U] the value was 0.07; for GUUAACGGUCAUAGGCCAUGGAAACUAGGAGCACCAUUUCGCUGCCAGUGAAGAAAUGAACAAAGAGAAUCUGGGCCCGGCAGGCAUCAAAAGAAAUAGUCCUGCGCUCAACCAGAAAGUCCGUAAUCAUUUUAAGGGUA [A67G A78C U102C U122C], 0.33; for GUUAACGGUCAUAGGCCAUGGAAACUAGGAGCACCAUUUCGCUGCCAGUGAAGAAAUGAACAAAGGAAAUCUGGGCCAGGCAGGCAUCAAAAGAAAUAGUCUUGCGCCCAACCAGAAAGUCUGUAAUCAUUUUAAGGGUG [A66G U108C A140G], 0.01.
To GUUAACGGUCAUAGGCCAUGGAAACUAGGAGCACCAUUUCGCUGCCAGUGAAGAAAUGAACAAAGAGGAUCUGGGCCAUGCAGGCAUCAAAAGAAAUAGUCUUGCGCUCAACCAGAAAGUCUGUAAUCAUUUUAAGGGUA [A67G A68G G79U] belongs 0.08; to GUUAACGGUCAUAGGCCAUGGAAACUAGGAGCACCAUUUCGCUGCCAGUGAAGAAAUGAACAAAGAGAAUCUGGGCCUGGCGGGCAUCAAAAGAAAUAGUCUUGCGCUCAACCAGAAAGUCUGUAAUCAUUUUAAGGGUA [A67G A78U A82G], 0.24; to GUUAACGGUCAUAGGCCAUGGAAACUAGGAGCACCAUUUCGCUGCCAGUGAAGAAAUGAACAAAGAGAAUCUGGGCCAGGCAGGCGUCGAAAGAAUUAGUCUUGCGCUCAACCAGAAAGUCUGUAAUCAUUUUAAGGGUA [A67G A86G A89G A96U], 1.64.
For GUUAACGGUCAUAGGCCAUGGAAACUAGGAGCACCAUUUCGCUGCCAGUGAAGAAAUGAACAAAGACAGUCUGGGCCAGGCAGGCACCAAAAGGAAUAGUCUUGCGCUCAACCAGAAAGUCUGUAAUCAUUUUAAGGGUA [A67C A69G U87C A94G] the value was 0.89.
With GUUAACGGUCAUAGGCCAUGGAAACUAGGAGCACCAUUUCGCUGCCAGUGAAGAAAUGAACAAAGAGAAUCUGGGCCAGGCAGGCAUCAAAAGGAAUUGUCUUGCGCUCAACCAGAAAGUCUGUAAUCAUUCUAAGGGUA [A67G A94G A98U U132C], the self-cleavage came out at 1.68.
To GUUAACGGUCAUAGGCCAUGGAAACUAGGAGCACCAUUUCGCUGCCAGUGAAGAAAUGAACAAAGAGAGUCUGGGCCAGGCAGGCAUCAAAAGAAGUAGUCUUGCGCUCAACCAGAAAGUCUGUAAUCAUUUUAAGGGUA [A67G A69G A96G] belongs 1.67; to GUUAACGGUCAUAGGCCAUGGAAACUAGGAGCACCAUUUCGCUGCCAGUGAAGAAAUGAACAAAGAGAAUCUGGGCCAGGCGGGCAUCAAAAGAAAUAGUCUUGCGCUCAACCAGAAAGUCUGUAAUCUUUUUAAGGGUA [A67G A82G A129U], 0.45; to GUUAACGGUCAUAGGCCAUGGAAACUAGGAGCACCAUUUCGCUGCCAGUGAAGAAAUGAACAAAGAGAAUCUGGGCCAGGCGGGCAUCAAAAGAAAUAGUCUUGCGCUCAACCAGAAAGUCUGUAAUCAUUCUAAGGGUA [A67G A82G U132C], 0.4.
As to GUUAACGGUCAUAGGCCAUGGAAACUAGGAGCACCAUUUCGCUGCCAGUGAAGAAAUGAACAAAGUAAAUCUGGGCCAGGCAGGCAUCGAAAGAAAUAGUCUUGCGCUCAACCAGGAAGUCUGUAAUCAUUUAAGGGUAA [A66U A89G A116G U133A A135G G138U U139A], the self-cleavage turned out to be 0.
GUUAACGGUCAUAGGCCAUGGAAACUAGGAGCACCAUUUCGCUGCCAGUGAAGAAAUGAACAAAGUAAACCUGGGCCAGGCAGGCUUCAAGAGAAAUAGUCUUGCGCUCAACCAGAAAGUCUGUAAUCAUUUUAAGGGUA [A66U U70C A86U A91G]: the self-cleavage was 0.45.
For GUUAACGGUCAUAGGCCAUGGAAACUAGGAGCACCAUUUCGCUGCCAGUGAAGAAAUGAACAAAGGAAAUCUGGGCCAGGCAGGCAUCAAAAGAAAUAGUCUUGCGCCCAACCAGAAAGUCUGUAAUCAUUUUAAGAGUA [A66G U108C G137A] the value was 0.01; for GUUAACGGUCAUAGGCCAUGGAAACUAGGAGCACCAUUUCGCUGCCAGUGAAGAAAUGAACAAAGAGAAUCUGGGCCAGGCAGGCAUCUAAAGAAAUAGUCUUGCGCUCAUCCAGAAAGUCUGUAAUCAUUUUAAGGGUA [A67G A89U A111U], 0.33; for GUUAACGGUCAUAGGCCAUGGAAACUAGGAGCACCAUUUCGCUGCCAGUGAAGAAAUGAACAAAGAGAAUCUGGGCCAGGCAGGCAUCAGAAGAAAUUGUCUUGCGCCCAACCAGAAAGUCUGUAAUCAUUUUAAGGGUA [A67G A90G A98U U108C], 0.01.

The values are drawn from the RNAGym collection of RNA variant scans (doi:10.7554/elife.90254).
